Test results as given in PMC11707101.
Results are given in words; binding and its absence hold for the method and conditions named. In cells and extracts the contact can be indirect. Some binding calls cover weakened binding; strength is not graded here. For some of these results: Sequences can lack the tags named with a protein. Values belong to the substance of their own block, whether it stands above or below them.

Amino acid sequences for entries named in this document (tags omitted).
UniProt Q8CIG8: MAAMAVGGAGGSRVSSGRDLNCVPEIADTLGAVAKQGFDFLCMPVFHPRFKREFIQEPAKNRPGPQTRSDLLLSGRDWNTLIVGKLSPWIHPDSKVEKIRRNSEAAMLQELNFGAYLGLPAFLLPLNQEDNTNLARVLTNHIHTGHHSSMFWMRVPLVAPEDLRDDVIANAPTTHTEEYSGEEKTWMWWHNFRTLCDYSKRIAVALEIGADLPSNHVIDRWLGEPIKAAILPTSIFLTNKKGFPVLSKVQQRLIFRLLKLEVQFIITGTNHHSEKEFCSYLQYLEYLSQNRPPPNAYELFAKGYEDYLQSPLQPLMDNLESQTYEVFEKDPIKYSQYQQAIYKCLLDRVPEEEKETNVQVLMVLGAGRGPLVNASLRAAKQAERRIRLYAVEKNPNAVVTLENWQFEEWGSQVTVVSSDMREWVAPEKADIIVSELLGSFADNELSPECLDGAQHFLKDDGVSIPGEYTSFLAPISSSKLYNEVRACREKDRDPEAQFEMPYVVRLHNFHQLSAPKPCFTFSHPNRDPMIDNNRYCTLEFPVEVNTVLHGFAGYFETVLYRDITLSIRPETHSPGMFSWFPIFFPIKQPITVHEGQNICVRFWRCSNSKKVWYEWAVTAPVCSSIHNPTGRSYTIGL
UniProt P54578: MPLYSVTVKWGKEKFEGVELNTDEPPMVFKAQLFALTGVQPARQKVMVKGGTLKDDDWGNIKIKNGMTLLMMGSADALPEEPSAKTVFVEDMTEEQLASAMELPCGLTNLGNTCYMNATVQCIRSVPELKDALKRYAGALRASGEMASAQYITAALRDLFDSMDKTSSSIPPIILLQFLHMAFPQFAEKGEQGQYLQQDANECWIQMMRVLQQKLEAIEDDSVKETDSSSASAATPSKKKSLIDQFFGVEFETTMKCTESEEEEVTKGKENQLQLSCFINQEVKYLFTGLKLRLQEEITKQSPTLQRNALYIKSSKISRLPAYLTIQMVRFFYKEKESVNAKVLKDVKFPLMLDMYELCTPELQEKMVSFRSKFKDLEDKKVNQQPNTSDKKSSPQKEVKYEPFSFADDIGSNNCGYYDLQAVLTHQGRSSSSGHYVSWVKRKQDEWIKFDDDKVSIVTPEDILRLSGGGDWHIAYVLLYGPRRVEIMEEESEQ
UniProt Q13263: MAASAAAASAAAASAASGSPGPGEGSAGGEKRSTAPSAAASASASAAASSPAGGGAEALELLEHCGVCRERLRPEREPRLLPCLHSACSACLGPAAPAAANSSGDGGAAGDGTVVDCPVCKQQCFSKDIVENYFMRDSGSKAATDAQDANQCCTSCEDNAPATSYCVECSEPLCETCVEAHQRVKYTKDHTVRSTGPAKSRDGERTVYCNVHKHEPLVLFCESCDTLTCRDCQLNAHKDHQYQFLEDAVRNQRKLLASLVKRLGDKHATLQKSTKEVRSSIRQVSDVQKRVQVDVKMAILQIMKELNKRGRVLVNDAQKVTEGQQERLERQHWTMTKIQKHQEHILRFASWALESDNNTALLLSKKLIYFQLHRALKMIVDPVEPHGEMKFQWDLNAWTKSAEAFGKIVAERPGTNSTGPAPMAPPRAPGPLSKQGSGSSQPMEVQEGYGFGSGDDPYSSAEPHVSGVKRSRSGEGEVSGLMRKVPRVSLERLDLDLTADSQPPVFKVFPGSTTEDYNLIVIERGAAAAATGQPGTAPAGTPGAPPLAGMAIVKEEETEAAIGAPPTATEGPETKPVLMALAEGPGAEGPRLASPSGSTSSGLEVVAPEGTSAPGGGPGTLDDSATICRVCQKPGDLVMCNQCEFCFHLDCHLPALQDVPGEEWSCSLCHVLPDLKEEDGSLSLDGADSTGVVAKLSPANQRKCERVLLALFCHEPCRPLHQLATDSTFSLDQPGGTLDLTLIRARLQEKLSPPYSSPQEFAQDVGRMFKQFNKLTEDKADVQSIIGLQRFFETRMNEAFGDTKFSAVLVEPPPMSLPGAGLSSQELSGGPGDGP
UniProt Q14258: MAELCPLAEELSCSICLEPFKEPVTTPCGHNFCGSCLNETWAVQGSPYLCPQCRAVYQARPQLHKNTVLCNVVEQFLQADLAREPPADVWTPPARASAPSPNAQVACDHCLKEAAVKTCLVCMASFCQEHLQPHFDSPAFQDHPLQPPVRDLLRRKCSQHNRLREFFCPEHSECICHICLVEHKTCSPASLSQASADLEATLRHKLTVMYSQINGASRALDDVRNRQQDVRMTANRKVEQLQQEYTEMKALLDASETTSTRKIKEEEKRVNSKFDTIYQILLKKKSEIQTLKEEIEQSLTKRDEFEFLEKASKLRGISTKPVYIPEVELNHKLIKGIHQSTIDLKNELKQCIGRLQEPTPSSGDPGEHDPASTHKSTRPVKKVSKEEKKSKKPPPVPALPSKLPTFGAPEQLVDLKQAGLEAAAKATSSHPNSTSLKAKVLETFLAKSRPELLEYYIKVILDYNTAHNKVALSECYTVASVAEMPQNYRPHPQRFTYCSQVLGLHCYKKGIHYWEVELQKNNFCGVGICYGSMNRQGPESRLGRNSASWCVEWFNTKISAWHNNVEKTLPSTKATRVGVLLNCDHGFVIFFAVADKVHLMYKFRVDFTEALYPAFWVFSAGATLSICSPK
UniProt O14744: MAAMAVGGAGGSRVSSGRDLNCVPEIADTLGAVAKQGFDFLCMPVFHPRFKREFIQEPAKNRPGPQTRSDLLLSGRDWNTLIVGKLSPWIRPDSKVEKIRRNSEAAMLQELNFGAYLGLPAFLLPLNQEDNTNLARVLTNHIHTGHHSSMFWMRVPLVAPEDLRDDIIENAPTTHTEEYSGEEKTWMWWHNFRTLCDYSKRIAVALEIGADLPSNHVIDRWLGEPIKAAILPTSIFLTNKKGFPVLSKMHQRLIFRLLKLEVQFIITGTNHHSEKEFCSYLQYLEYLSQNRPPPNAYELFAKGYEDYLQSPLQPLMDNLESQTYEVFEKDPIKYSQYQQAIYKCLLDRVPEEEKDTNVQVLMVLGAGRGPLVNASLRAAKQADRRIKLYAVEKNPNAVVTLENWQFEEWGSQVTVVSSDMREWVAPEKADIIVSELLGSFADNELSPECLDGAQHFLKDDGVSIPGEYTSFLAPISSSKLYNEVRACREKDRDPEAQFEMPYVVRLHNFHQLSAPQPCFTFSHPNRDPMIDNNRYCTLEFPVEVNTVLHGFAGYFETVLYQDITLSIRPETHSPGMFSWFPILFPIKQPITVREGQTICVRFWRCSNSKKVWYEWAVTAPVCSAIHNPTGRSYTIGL

Legend:
[1] = target: Prmt5, endogenous in MC38 cells (mouse (endogenous in MC38)) (UniProt Q8CIG8); test: co-IP; endogenous proteins; lysates of HCT116 or MC38 cells immunoprecipitated with antibodies against the indicated proteins, immunoblot
Myc-Prmt5 = Myc-Prmt5 (UniProt Q8CIG8); test: co-IP; both partners exogenous, coexpressed in HCT116 or MC38 cells; immunoprecipitation by the tag, Western blot
GST-ALKBH5 (human) = GST-ALKBH5 (human) (UniProt Q6P6C2); test: pull-down; GST-fused ALKBH5 incubated with HEK293T cell lysates; bound proteins by Western blot; GST as control; only the target purified
[2] = target: AlkB homologue 5 (ALKBH5), endogenous in HCT116 cells (human (endogenous in HCT116)) (UniProt Q6P6C2); test: co-IP; PRMT5 overexpressed in HCT116 cells; immunoprecipitation with an anti-ALKBH5 antibody
[3] = target: USP14 in HCT116 cells (human (endogenous in HCT116)) (UniProt P54578); test: co-IP; in HCT116 and MC38 cells (Fig. S3G and H); bait and whether endogenous not stated
[4] = target: TRIM28 in HCT116 cells (human (endogenous in HCT116)) (UniProt Q13263); test: as above
[5] = target: TRIM25 in HCT116 cells (human (endogenous in HCT116)) (UniProt Q14258); test: as above
[6] = target: T1, Flag-ALKBH5-R316K (human) (UniProt Q6P6C2); test: co-IP; IP of Flag-ALKBH5 from HCT116 cells, blot for TRIM28; cells with or without coexpressed PRMT5, shCtrl or shPRMT5, DMSO or GSK595; ALKBH5-WT against ALKBH5-R316K cells
T1 sequence: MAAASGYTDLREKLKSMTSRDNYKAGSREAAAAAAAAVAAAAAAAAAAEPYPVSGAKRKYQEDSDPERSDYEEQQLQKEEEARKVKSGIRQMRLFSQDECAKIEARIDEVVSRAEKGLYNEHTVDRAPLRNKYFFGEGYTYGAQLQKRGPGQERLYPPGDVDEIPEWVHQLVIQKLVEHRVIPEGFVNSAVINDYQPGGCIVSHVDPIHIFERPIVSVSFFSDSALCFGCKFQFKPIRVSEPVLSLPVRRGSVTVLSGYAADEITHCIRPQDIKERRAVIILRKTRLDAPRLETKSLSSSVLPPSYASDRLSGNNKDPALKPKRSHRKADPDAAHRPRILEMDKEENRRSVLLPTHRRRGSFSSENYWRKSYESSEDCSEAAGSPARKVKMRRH

Flag-ALKBH5 (human) [7] = target: Flag-ALKBH5 (human) (UniProt Q6P6C2); test: as above
Flag-ALKBH5 (human) [8] = target: Flag-ALKBH5 (human) (UniProt Q6P6C2); test: co-IP; both partners exogenous, coexpressed in HCT116 or MC38 cells; immunoprecipitation by the tag, Western blot

Substance: Alkbh5, endogenous in MC38 cells (from UniProt Q3TSG4 1-395) (enzyme)
- binding [1]: binds

Substance: PRMT5 in HEK293T cell lysates (from UniProt O14744 1-637) (enzyme)
- binding (GST-ALKBH5 (human)): binds

Substance: PRMT5 overexpressed in HCT116 cells (from UniProt O14744 1-637) (enzyme)
- binding [2]: binds

Substance: Protein arginine methyltransferase 5 (PRMT5), endogenous in HCT116 cells (from UniProt O14744 1-637) (enzyme)
- binding [3]: no binding
- binding [4]: binds
- binding [5]: no binding

Other lines, results leading:

- binding (Myc-Prmt5): binds
Substance: Flag-Alkbh5 (from UniProt Q3TSG4 1-395) (enzyme)

- binding [6]: binds
- binding (Flag-ALKBH5 (human) [7]): binds
Substance: TRIM28 in HCT116 cells (from UniProt Q13263 1-835) (enzyme)

- binding (Flag-ALKBH5 (human) [8]): binds
Substance: exogenous TRIM28 in HCT116 cells (from UniProt Q13263 1-835) (enzyme)
